Results from PMC6794377.
Results are given in words; binding and its absence hold for the method and conditions named. Binding seen in cells or lysates may run through a third protein. Tags and fused reporters may be left off the sequences shown.

Chains of the proteins cited; added tags and fusions are not shown.
UniProt P07814: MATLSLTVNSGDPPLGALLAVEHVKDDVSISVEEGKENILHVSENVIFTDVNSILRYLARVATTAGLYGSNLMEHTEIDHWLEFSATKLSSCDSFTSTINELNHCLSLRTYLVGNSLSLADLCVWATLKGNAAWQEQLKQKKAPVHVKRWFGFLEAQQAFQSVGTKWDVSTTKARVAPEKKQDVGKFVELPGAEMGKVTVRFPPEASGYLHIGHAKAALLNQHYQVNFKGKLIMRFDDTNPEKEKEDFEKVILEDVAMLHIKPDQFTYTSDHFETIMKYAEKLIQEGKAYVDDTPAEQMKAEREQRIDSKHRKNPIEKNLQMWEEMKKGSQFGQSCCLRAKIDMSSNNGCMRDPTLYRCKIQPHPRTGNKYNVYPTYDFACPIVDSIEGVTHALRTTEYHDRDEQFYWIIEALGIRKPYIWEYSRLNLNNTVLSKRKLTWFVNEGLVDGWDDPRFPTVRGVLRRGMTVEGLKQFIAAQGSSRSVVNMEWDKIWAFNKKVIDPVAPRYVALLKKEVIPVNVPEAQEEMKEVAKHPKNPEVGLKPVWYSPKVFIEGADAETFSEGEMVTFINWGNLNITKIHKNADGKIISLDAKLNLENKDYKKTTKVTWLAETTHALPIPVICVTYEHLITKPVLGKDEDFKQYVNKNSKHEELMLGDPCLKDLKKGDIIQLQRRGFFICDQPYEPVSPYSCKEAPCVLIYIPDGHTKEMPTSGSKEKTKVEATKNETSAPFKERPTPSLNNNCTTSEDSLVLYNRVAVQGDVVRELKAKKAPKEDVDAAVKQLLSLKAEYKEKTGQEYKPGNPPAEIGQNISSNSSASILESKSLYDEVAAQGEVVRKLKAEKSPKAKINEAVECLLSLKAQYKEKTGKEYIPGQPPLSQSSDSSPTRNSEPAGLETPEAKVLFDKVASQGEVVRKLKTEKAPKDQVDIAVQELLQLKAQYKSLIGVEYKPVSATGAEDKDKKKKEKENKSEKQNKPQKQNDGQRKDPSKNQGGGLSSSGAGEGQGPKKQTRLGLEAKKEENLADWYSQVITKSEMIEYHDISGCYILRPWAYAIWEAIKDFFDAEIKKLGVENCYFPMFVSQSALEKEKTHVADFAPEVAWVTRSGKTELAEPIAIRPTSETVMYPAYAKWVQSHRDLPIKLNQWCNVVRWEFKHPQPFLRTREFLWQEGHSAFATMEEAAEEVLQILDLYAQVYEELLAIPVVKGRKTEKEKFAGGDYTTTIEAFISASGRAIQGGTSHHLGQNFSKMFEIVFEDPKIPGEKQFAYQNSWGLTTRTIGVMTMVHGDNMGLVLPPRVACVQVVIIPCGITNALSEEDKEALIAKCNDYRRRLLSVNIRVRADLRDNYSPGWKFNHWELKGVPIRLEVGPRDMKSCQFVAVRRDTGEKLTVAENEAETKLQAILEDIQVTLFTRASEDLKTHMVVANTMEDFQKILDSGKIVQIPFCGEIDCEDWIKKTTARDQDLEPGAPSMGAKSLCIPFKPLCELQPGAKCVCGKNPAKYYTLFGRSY

Molecular target: T1, hThrRS-L-Hb/A-FLAG (human) (UniProt A2RTX5)
T1 sequence: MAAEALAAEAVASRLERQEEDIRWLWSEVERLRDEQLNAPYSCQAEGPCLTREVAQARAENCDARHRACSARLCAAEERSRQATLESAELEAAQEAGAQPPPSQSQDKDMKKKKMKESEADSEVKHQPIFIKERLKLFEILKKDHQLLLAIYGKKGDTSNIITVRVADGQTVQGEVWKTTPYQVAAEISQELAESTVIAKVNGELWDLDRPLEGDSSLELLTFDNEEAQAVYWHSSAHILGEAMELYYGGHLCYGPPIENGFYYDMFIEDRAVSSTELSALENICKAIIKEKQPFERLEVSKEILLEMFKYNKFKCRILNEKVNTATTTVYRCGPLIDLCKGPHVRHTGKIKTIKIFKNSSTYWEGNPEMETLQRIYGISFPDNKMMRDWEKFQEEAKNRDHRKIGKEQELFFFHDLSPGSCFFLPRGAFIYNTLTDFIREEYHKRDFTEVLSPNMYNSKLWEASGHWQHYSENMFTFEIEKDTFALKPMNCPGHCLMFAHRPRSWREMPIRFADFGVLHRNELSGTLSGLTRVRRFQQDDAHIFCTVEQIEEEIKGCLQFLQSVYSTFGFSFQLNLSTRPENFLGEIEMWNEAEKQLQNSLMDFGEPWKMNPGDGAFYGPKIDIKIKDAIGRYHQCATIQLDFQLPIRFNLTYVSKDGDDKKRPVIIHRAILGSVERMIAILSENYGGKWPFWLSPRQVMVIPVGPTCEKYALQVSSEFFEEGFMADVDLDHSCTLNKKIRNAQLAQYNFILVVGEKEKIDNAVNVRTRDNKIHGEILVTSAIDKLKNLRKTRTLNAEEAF
Assay: co-IP; FLAG-tagged hThrRS-L or mutant overexpressed in HEK293T; IP with anti-FLAG, Dynabeads protein G, 4°C; endogenous partners detected by western blotting

For “GluProRS, endogenous in HEK293T (from UniProt P07814 1-1512) (enzyme)”, the binding was “no binding”.
